Results from the supplement of paper PMC12217912.
The other results are listed elsewhere or left out. Sequences were assembled here from the parent chain. Inactive controls read about 0.05.

B1: TEV protease; numbered along this chain (parent)
chain: MGESLFKGPRDYNPISSSICHLTNESDGHTTSLYGIGFGPFIITNKHLFRRNNGTLVVQSLHGVFKVKDTTTLQQHLVDGRDMIIIRMPKDFPPFPQKLKFREPQREERICLVTTNFQTKSMSSMVSDTSCTFPSGDGIFWKHWIQTKDGQCGSPLVSTRDGFIVGIHSASNFTNTNNYFTSVPKNFMELLTNQEAQQWVSGWRLNADSVLWGGHKVFMVKPEEPFQPVKEATQL

Variants of: B1
Assay: raw area under fraction-flipped curve 0-4 h after induction (AUC4h, not background-subtracted), DNA-recorder readout of cleavage of the substrate (dimensionless); higher = more cleavage of the substrate by the protease variant
Details: temperature: 34 °C; time window: 0-4 h after rhamnose induction
Method: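 In vivo DNA recorder in E. coli TOP10(DE3) ΔrhaA at 34 °C. Each TEVp single-site mutant (parent TEVp 0) is paired with a single-site variant of the 7-mer TEVs (canonical ENLYFQ|S). The substrate sits between flexible linkers in a Bxb1-sfGFP-TEVs-SsrA fusion, so cleavage stabilises Bxb1 and speeds flipping of a recombination array, read by NGS. The value is the raw area under the fraction-flipped curve over 0-4 h after rhamnose induction (AUC4h), with ≥20 reads per time point. It is not background-subtracted; inactive controls average about 0.047.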
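Note: Bxb1 expression induced with 0.2% (w/v) L-rhamnose at OD600 near 0.5, cultures sampled hourly, flipped fraction per protease–substrate barcode pair counted by paired-end Illumina sequencing.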

Variant	area with substrate CNLYFQS	area with substrate HNLYFQS	area with substrate INLYFQS	area with substrate LNLYFQS	area with substrate PNLYFQS	area with substrate SNLYFQS	area with substrate TNLYFQS	area with substrate VNLYFQS	area with substrate YNLYFQS	area with substrate KNLYFQS	area with substrate RNLYFQS	area with substrate WNLYFQS	area with substrate FNLYFQS	area with substrate GNLYFQS	area with substrate NNLYFQS	area with substrate QNLYFQS	area with substrate MNLYFQS
E3P	0.0661	0.0661	0.0649	0.079	0.0417	0.0477	0.0929	0.0614	0.092								
E3G	0.0655	0.0604	0.0557	0.0693	0.0632	0.0625	0.0661		0.0343	0.0515	0.0434	0.0638					
S32N	0.0645	0.0667		0.0597	0.0624		0.0797	0.0758		0.0669		0.0478	0.0742	0.0671	0.0622	0.062	
K7A	0.0719	0.0676				0.097	0.0654		0.0615	0.0691		0.0664		0.0715			
P9A	0.0519	0.0615	0.0678	0.0654	0.065	0.0696	0.0593	0.0607		0.0714	0.0516	0.0533					
F41N	0.0755	0.0633	0.06			0.0683			0.061			0.063	0.0707	0.0413	0.0577	0.0659	0.0677
T31C	0.0719	0.0576	0.0589		0.0683	0.0669	0.0689		0.0642	0.0602		0.0498	0.0703	0.0622	0.0572		0.0765
T31G	0.0611	0.0597	0.0631	0.0532	0.0632	0.0613	0.0567	0.064	0.0435	0.0782	0.053	0.0522	0.0517	0.0485	0.064		0.0654
T31R	0.0811	0.0812		0.068	0.0549		0.0597	0.0599	0.0565			0.0598		0.0546		0.0584	
S4E	0.0873	0.0559	0.0706	0.0865	0.0893	0.0838			0.0775		0.0668	0.0336	0.0706	0.0782		0.0753	
S4P	0.0774	0.0805	0.062	0.0602	0.0675	0.0817	0.0642	0.0745	0.0654	0.0657		0.0602	0.0563	0.0639	0.068	0.0747	0.0588
S4V	0.0866	0.0483			0.0708				0.068	0.0726			0.0697	0.0516	0.073		0.0624
S4K	0.0678	0.0781		0.105	0.0764	0.0652	0.0696	0.0733	0.081		0.0605	0.0519	0.0599	0.0726			0.0817
C20E	0.0463	0.0405		0.0502	0.0396	0.0435	0.0436		0.0452	0.0476		0.0466		0.0533			0.0606
C20A	0.051	0.0595	0.067		0.077	0.0839	0.077		0.0732		0.0587	0.0658			0.0577	0.0852	0.0372
Y12P	0.065	0.0616	0.0688	0.036	0.0638	0.0656		0.0636	0.0695	0.0644	0.078	0.0577		0.0629	0.0455	0.083	0.0687
H29W	0.0794	0.0695	0.0517		0.0962	0.0806	0.0701	0.0673	0.0643	0.0654		0.0469	0.0604	0.0556	0.0754		0.0661
H29Q	0.0741			0.0955	0.0523		0.0652					0.0533	0.068	0.0632			
H29Y	0.157	0.0842	0.0649	0.031	0.0633					0.018	0.0274	0.0543			0.0838		
D27V	0.0619	0.065			0.0598	0.0441	0.0543		0.0658	0.0591		0.0564	0.0802	0.105	0.0608		0.0647
G2Q	0.07	0.0496		0.0652		0.0687	0.0681		0.0754		0.0778		0.0646		0.0797		0.0646
R10I	0.0634			0.0773	0.0538		0.0622			0.0661		0.0402	0.0737				
R10L	0.0625			0.0659	0.0784	0.0636	0.0708			0.0728		0.0452	0.0782	0.0667	0.0668		0.0666
L33F	0.0571	0.0615	0.0521	0.0566	0.0424	0.0598	0.0599	0.0481		0.073	0.0582	0.0604	0.0678	0.0754	0.0574	0.0674	0.0635
L33Q	0.0561	0.0453	0.0359	0.0525	0.0608	0.0637	0.0653	0.0593	0.0655	0.0625	0.0798	0.0582	0.0674	0.0827		0.0539	0.0594
L33V	0.0539	0.0648		0.0712	0.0531	0.0639	0.0647					0.0591	0.0655	0.0464	0.0643		0.0639
G37R	0.0509	0.0648				0.042	0.0551			0.063	0.0803	0.0594	0.0278		0.0393		0.0543
G37L	0.107	0.0564		0.0455		0.042	0.0554	0.0576			0.0325	0.0815	0.0614				
N24K	0.0572	0.0516	0.0379	0.0525	0.062				0.0585	0.0718		0.062			0.0488		0.0591
I36N	0.0524	0.0532	0.0755			0.0522	0.0459	0.043	0.0509	0.0484		0.037	0.0517	0.0537	0.0474	0.0672	0.0462
